# Reference: paper PMC4336329 (PLoS ONE, 2015)
# Hit rate of the full screen: of about 310,000 compounds, about 2,200 (0.71%) showed an effect of 50% or more. The effect is printed as a negative number. Some of the results follow.
# Molecular target: human ether-à-go-go-related gene (hERG) potassium channel (human, UniProt Q12809)
# Test: primary screen, population patch clamp on CHO cells stably expressing hERG
# Sequence of human ether-à-go-go-related gene (hERG) potassium channel (Q12809 whole entry, looked up): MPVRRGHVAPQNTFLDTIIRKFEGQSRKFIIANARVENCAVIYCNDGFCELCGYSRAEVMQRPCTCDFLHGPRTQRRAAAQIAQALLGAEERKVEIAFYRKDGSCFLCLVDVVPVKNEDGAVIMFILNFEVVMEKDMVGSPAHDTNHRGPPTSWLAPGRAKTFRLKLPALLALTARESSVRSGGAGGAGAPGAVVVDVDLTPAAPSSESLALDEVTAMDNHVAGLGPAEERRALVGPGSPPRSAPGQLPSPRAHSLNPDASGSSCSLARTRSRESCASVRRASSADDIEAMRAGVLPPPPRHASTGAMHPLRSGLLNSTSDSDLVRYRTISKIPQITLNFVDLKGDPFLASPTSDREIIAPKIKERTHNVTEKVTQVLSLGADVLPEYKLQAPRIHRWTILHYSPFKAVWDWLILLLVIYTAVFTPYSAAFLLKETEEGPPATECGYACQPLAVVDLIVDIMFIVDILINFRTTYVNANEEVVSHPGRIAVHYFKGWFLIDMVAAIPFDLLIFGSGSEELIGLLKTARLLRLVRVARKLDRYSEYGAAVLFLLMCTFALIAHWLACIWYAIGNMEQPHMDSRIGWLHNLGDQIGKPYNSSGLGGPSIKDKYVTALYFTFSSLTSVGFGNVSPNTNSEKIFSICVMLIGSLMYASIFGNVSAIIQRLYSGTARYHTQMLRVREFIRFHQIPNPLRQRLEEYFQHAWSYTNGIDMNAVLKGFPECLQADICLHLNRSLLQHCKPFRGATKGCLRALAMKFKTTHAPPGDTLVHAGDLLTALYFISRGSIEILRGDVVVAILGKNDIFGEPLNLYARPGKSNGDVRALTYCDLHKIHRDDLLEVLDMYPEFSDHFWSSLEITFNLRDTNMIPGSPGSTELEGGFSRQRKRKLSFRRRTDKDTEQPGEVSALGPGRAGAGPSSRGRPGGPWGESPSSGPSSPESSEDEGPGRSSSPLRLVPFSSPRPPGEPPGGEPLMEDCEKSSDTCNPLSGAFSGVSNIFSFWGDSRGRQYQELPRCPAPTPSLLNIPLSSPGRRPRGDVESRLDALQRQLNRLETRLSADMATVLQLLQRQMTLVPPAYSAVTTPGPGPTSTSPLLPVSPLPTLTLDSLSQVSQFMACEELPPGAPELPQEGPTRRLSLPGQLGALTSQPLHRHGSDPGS
row,SMILES,"hERG current change (%, negative = inhibition) at 1uM"
1,Cc1ccc2nsnc2c1NC(=O)c1cccc([N+](=O)[O-])c1,1.62%
2,O=C1N=C(N2CCCCC2)S/C1=C\c1ccncc1,12.9%
3,CCc1nnc(NC(=O)c2c(OC)cccc2OC)s1,10.8%
4,CC(=O)c1cccc(Nc2nc(N3CCOCC3)nc(N3CCOCC3)n2)c1.Cl,11.3%
5,CCCCNC(=O)CCn1c(=O)c2ccccc2n(Cc2ccc(Cl)cc2)c1=O,1.3%
6,O=C(CCN1C(=O)/C(=C/c2ccccc2Cl)SC1=S)N1CCCC1,8.89%
7,CC(=O)c1cccc(Nc2cc(C)nc3ccc(C)cc23)c1.Cl,-13.7%
8,COC(=O)c1sccc1NC(=O)c1cccnc1,7.85%
9,c1ccc(-n2nnc3c(N4CCOCC4)ncnc32)cc1,-2.95%
10,COc1c(Br)cc(C(N)=O)cc1OCc1ccccc1,10.3%
11,COC(=O)c1c(C(=O)OC)c(-c2ccc(OC)cc2)n2c1CCC2,13%
12,O=C(O)C1(O)C[C@H](O)C(O)[C@@H](O)C1 (some centres unmarked),7.65%
13,CC(C)n1cc(C(=O)N(CC(=O)NC(C)(C)C)Cc2ccccc2)cn1,11%
14,Clc1cccc(N2CCN(Cc3nc(-c4ccccc4)no3)CC2)c1,0.335%
15,CC1(C)CC(=O)C(C=NCC2CCN(C(=O)Nc3ccc(Cl)c(Cl)c3)CC2)=C(O)C1,-5.55%
16,Cn1cc(CN2C[C@]3(C)C[C@H]2CC(C)(C)C3)c(-c2ccc3c(c2)OCCO3)n1,7.45%
17,COc1ccc(CNC(=O)[C@@H](C)NC(=O)C2CCN(C(=O)[C@@H](N)CCSC)CC2)cc1,19.3%
18,CN(C)/C=N/n1cnc2ccccc2c1=O,11.6%
19,O=C(Cn1cnc2c(oc3ccccc32)c1=O)NCCc1ccccc1,6.35%
20,Cc1ccccc1NC(=O)N1C2CCC1CC(O)(c1cccnc1)C2 (centres unmarked),-3.81%
21,COc1cc(C=O)ccc1OCC(=O)Nc1cccc(S(=O)(=O)N(C)c2ccccc2)c1,2.33%
22,Cc1cc2c(C)nc(-c3ccccc3)nc2o1,5.09%

row,SMILES,"hERG current change (%, negative = inhibition) at 1uM"
1,CCOc1ccc(Oc2nc(N(CC)CC)nc(N3CCOCC3)n2)nn1,10.8%
2,CC(OC(=O)c1ccc2c(c1)OCCO2)C(=O)NC1CCCCC1C (centres unmarked),8.83%
3,CN1C(C)(C)CC(NC(=O)CCC(=O)NC2CC(C)(C)N(C)C(C)(C)C2)CC1(C)C,14.2%
4,O=C(CNC(=O)c1nc[nH]c1C(=O)NCc1ccccc1)OCc1ccccc1,6.38%
5,NS(=O)(=O)c1ccc(NC(=S)N2CCC(Cc3ccccc3)CC2)cc1,6.78%
6,O=C(N/C(=C/c1cccs1)C(=O)N1CCOCC1)c1cccs1,8.07%
7,Cc1ccc(C)c(S(=O)(=O)N2CCCOC2CNC(=O)C(=O)NCCc2ccco2)c1 (centres unmarked),15.1%
8,CN(C(=O)Oc1ccc(C(=O)c2ccc(Cl)cc2)cc1)c1ccccc1,8.97%
9,C=CCOc1c(CNc2cccc(C(=O)O)c2)cccc1OC,-5.37%
10,CC1(C)CC(=O)C=C(NCc2ccc(C(=O)O)cc2)C1,5.74%
11,COc1ccccc1/C=C/c1nc(S(=O)(=O)c2ccccc2)c(NCCN(C)C)o1,2.57%
12,Cc1ccc(OCCCn2ccnc2)cc1C,8.04%
13,Cc1ccc(NC(=O)CCn2cccc2)cc1Cl,13.2%
14,NC(=O)[C@@H]1CCCNc2c(I)cc([N+](=O)[O-])cc2C(=O)N[C@@H](CCCN=C(N)N)C(=O)N[C@@H](CCCN=C(N)N)C(=O)N1,11.8%
15,O=C(NCCCn1ccnc1)c1ccccc1Br,8.68%
16,Cn1nnnc1SCC(=O)Nc1ccc(S(=O)(=O)N2CCOCC2)cc1,10%
17,Cc1cc2[nH]c(=O)c(=O)[nH]c2cc1S(=O)(=O)NCc1ccccc1,15.5%
18,O=C(CCc1nnc2ccc(NCc3ccco3)nn12)N1CCN(c2ccccc2F)CC1,0.147%
19,O=C(Nc1ccc(O)cc1)c1ccc(NC(=O)c2ccco2)cc1,11.6%
20,CC(=O)N1N=C(c2ccc(C)cc2)OC1c1ccc(C(C)C)cc1 (centres unmarked),13.2%
21,Cc1cccc(NC(=O)CCC(=O)NCCO)c1,14%
22,Oc1ccccc1-[n+]1c(-c2ccccc2)cc(-c2ccccc2)c(O)c1-c1ccccc1.[O-][Cl+3]([O-])([O-])[O-],13%
